Laboratory results from ChEMBL document CHEMBL5303300, “EUbOPEN Chemogenomics Library - Multiplex” (2023).
For part of its entries the source gives two or more results. They are shown here; other results are not. There may be further records. The records of an entry are repeated measurements across runs, samples, wells, individuals or studies.

Test system: U2OS
Assay: Multiplex assay against U2OS
Type: toxicity, cell-based
Details: human, number of replicates 2
Summary of the method: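 At seeding, live cells were stained with Hoechst33342, BioTracker Green Microtubule Cytoskeleton Dye, MitoTracker Red and Annexin V Alexa Fluor 680. After compound addition they were imaged on a CQ1 microscope at 37°C and 5% CO2, and CellPathfinder machine-learning gating sorted them into Hoechst high-intensity objects or normal cells, with normal cells further split into healthy, pyknosed or fragmented nuclei and pyknosed cells into mitotic or apoptotic. Tubulin, mitochondrial-mass and membrane-permeability phenotypes are given as per cents of cells with healthy nuclei.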

[1] = 12 h, 1 µM, compound concentration 1 uM
[2] = 12 h, 10 µM, compound concentration 10 uM
[3] = 24 h, 1 µM, compound concentration 1 uM
[4] = 24 h, 10 µM, compound concentration 10 uM
[5] = 48 h, 1 µM, compound concentration 1 uM
[6] = 48 h, 10 µM, compound concentration 10 uM

## O=C1NC(=NCc2cccs2)SC1=Cc1ccc2ncccc2c1
[1]
  Population Fragmented Nuclei (%): 21% and 3%
  Population Mitotic Cells (%): 0% and 40%
  Total Cell Count: 32 and 151
[2]
  Population Fragmented Nuclei (%): 21% and 6%
  Total Cell Count: 33 and 194
[3]
  Population Pyknosed Nuclei (%): 21% and 6%
  Total Cell Count: 51 and 203
[4]
  Population Fragmented Nuclei (%): 17% and 5%
  Total Cell Count: 41 and 209
[5]
  Population Fragmented Nuclei (%): 22% and 4%
  Population Mitotic Cells (%): 7% and 26%
  Population Pyknosed Nuclei (%): 19% and 6%
  Total Cell Count: 71 and 437
[6]
  Population Mitochondria Different-Phenotype (%): 26% and 1%
  Total Cell Count: 42 and 220

## COc1ccccc1-c1cc(Nc2cccc(CS(N)(=O)=O)c2)ncn1
[1]
  Total Cell Count: 36 and 214
[2]
  Population Fragmented Nuclei (%): 5% and 36%
  Population Membrane Permeable-Phenotype (%): 2% and 13%
  Total Cell Count: 243 and 46
[3]
  Population Fragmented Nuclei (%): 21% and 3%
  Total Cell Count: 61 and 305
[4]
  Population Fragmented Nuclei (%): 3% and 18%
  Population Membrane Permeable-Phenotype (%): 1% and 17%
  Total Cell Count: 280 and 54
[5]
  Total Cell Count: 88 and 584
[6]
  Total Cell Count: 74 and 396

## CS(=O)(=O)c1ccc(C(=O)Nc2cccc(COc3cc(F)c(Br)cc3CN3CC[C@H](O)C3)c2)c(Cl)c1.O=CO
[1]
  Total Cell Count: 42 and 190
[3]
  Total Cell Count: 50 and 281
[5]
  Total Cell Count: 63 and 466
[6]
  Total Cell Count: 90 and 275

## CS(=O)(=O)c1ccc(C(=O)Nc2ccc(F)c(COc3ccc(Br)cc3CNCCO)c2)c(Cl)c1.O=CO
[1]
  Total Cell Count: 40 and 263
[2]
  Total Cell Count: 37 and 194
[3]
  Total Cell Count: 51 and 321
[4]
  Total Cell Count: 51 and 233
[5]
  Total Cell Count: 77 and 599
[6]
  Total Cell Count: 53 and 321

## CC(C)c1c(NC(=O)Nc2ccc(Cl)cc2)c(=O)n(-c2ccccc2)n1C
[1]
  Population Fragmented Nuclei (%): 23% and 4%
  Total Cell Count: 30 and 253
[2]
  Population Fragmented Nuclei (%): 70% and 2%
  Population Healthy Nuclei (%): 22% and 90%
  Population Mitotic Cells (%): 0% and 56%
  Total Cell Count: 31 and 240
[3]
  Population Fragmented Nuclei (%): 15% and 3%
  Total Cell Count: 38 and 320
[4]
  Population Fragmented Nuclei (%): 65% and 3%
  Population Mitotic Cells (%): 0% and 63%
  Total Cell Count: 43 and 340
[5]
  Total Cell Count: 66 and 686
[6]
  Population Fragmented Nuclei (%): 66% and 2%
  Population Mitotic Cells (%): 0% and 44%
  Total Cell Count: 57 and 699

## COc1cc(N(C)c2ccnc3ccc(C(F)(F)F)cc23)cc(OC)c1OC
[1]
  Population Fragmented Nuclei (%): 4% and 22%
  Total Cell Count: 222 and 22
[2]
  Population Fragmented Nuclei (%): 27% and 4%
  Total Cell Count: 29 and 174
[3]
  Total Cell Count: 28 and 325
[4]
  Population Fragmented Nuclei (%): 25% and 5%
  Total Cell Count: 32 and 219
[5]
  Total Cell Count: 52 and 663
[6]
  Population Fragmented Nuclei (%): 15% and 3%
  Total Cell Count: 46 and 418
